# About 2,200 (0.71%) of roughly 310,000 compounds showed an effect of 50% or more. Effects have a minus sign here. The list shows a part of the results.
# Target: human ether-à-go-go-related gene (hERG) potassium channel (human, UniProt Q12809)
# Test: primary screen, population patch clamp on CHO cells stably expressing hERG
# Chain of human ether-à-go-go-related gene (hERG) potassium channel (Q12809 whole entry, looked up): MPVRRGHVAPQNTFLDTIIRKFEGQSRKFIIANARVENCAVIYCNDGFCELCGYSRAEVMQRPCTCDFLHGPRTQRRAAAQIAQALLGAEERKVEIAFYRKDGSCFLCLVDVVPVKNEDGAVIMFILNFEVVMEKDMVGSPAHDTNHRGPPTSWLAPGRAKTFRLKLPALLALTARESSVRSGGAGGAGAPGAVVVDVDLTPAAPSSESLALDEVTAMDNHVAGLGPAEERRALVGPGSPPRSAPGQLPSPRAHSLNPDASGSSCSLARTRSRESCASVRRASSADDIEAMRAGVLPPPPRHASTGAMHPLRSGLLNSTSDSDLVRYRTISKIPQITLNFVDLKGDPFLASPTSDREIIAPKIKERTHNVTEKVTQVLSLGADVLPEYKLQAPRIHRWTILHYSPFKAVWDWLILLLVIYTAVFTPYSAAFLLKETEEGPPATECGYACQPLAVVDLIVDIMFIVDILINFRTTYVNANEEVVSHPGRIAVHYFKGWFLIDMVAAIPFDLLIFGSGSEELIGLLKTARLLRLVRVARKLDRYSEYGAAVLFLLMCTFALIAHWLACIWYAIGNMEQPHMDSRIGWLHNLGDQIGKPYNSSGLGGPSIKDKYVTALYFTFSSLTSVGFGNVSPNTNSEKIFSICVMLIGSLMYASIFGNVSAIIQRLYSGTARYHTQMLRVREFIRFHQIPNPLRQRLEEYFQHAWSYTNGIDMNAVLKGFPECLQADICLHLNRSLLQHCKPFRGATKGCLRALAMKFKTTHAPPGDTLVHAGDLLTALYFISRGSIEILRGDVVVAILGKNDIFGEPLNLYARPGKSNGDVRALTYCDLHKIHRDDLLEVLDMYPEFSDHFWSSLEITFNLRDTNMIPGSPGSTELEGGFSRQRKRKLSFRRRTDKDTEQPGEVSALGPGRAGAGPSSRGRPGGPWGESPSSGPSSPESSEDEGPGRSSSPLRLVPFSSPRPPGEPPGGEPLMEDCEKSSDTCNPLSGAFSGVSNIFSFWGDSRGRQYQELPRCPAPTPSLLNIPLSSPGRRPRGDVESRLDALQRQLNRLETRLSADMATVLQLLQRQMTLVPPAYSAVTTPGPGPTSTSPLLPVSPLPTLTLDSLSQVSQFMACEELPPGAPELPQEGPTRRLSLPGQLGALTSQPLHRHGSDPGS
row,SMILES,"hERG current change (%, negative = inhibition) at 1uM [%]"
1,CCc1ccc(S(=O)(=O)NCc2cccs2)cc1,3.76
2,c1cncc(CNc2ncn[nH]2)c1,12
3,Cc1cc(C)cc(OCC(=O)NCc2nc(-c3ccccc3)no2)c1,6.88
4,COc1ccc(C(=O)NNC(=O)c2ccc(C)cc2)cc1S(=O)(=O)N1CCCC1,6.7
5,CCOC(=O)C1(CC2CCCCO2)CCN(C(=O)Nc2ccc3c(c2)OCO3)CC1 (centres unmarked),15.5
6,COc1ccc(NC(=O)CSc2n[nH]c(CNc3cccc(C)c3)n2)cc1,8.44
7,COC(=O)c1ccc(N2CCN(S(=O)(=O)c3c(C)cc(C)cc3C)CC2)c([N+](=O)[O-])c1,16
8,Cc1ccc(C(=O)NC2CCN(CCCC(=O)c3ccc(F)cc3)CC2)cc1,-72.9
9,CC(C(=O)Nc1ccc2c(c1)OCO2)c1ccc([N+](=O)[O-])cc1 (centres unmarked),8.93
10,CC(/C=N/NC(=O)c1ccccc1F)c1ccccc1 (centres unmarked),15.7
11,COc1ccccc1OCC(=O)NNC(=O)C(=O)N1CCCC1,10
12,N#CCCn1cc(/C=N/N=C2\NC(=O)C(CC(=O)O)S2)c(-c2ccc(F)cc2)n1 (centres unmarked),14.3
13,Cc1ccc(NC(=O)COC(=O)c2ccn(C)n2)cc1,7.01
14,Cc1ccc(NC(=S)Nc2ccccn2)cc1C,9.72
15,CC(C)Cn1c(NCCN(C)C)nc2c1c(=O)[nH]c(=O)n2C,14
16,O=C(CNC(=O)c1ccccc1Br)NCCSc1ccc(Br)cc1,-4.76
17,COc1ccccc1NC(=O)Cn1nc(C(F)(F)F)c2c1CCCC2,-1.98
18,COc1cc(/C=N/NC(N)=O)ccc1OC(=O)c1cccs1,2.52
19,CCCN(CC1CC1)C(=O)CSc1nnc(-c2cc(-c3cccs3)nc3ccccc23)o1,6.71
20,CC1(C)CC(=O)C(C=NCC2CCN(C(=O)Cc3ccccc3)CC2)=C(O)C1,4.67
21,O=C(C#Cc1ccccc1)c1ccco1,12.2
22,COCCN1C(=O)C(CC(=O)Nc2ccccc2)SC1=Nc1ccc(OC)cc1 (centres unmarked),12.6
23,CCC(C)N(C(=O)c1csnn1)C(C(=O)NCc1ccc(F)cc1)c1ccccc1 (centres unmarked),7.54

row,SMILES,"hERG current change (%, negative = inhibition) at 1uM [%]"
1,CCOC(=O)C1=C(CSCC(=O)OC)NC(=O)NC1c1cc(C)ccc1C (centres unmarked),-4.49
2,O=C(Cc1ccc(Cl)cc1)NCCCNC(=O)c1cccnc1,19.9
3,O=C(O)c1cn[nH]c1-n1cnnn1,0.974
4,COc1cccc2c3c(c(=O)[nH]c12)CCC(C)(C)O3,12.4
5,O=C(c1ccoc1)N1CCCC(Nc2ccc(F)c(F)c2)C1 (centres unmarked),15.6
6,O=C(NCc1ccccc1F)c1ccncc1,14.5
7,CN1CCN(c2oc(-c3ccco3)nc2S(=O)(=O)c2ccccc2)CC1,8.77
8,O=C(Nc1ccc(F)cc1)C(c1ccccc1)N1CCN(S(=O)(=O)c2c(F)cccc2F)CC1 (centres unmarked),9.94
9,COc1ccc(C)cc1NC(=O)CCC(=O)Nc1nnc(C(F)(F)F)s1,24.6
10,CCOC(=O)N1CCN(C(=O)CSc2nc3c(cnn3-c3ccc(Cl)cc3)c(=O)[nH]2)CC1,7.58
11,COC(=O)C1=CN(c2ccc(OC)cc2)C=C(C(=O)OC)C1c1cccc(F)c1,13.7
12,O=C(Oc1ccc(=O)n(-c2ccccc2)n1)c1ccccc1,0.0788
13,CC1(C)CC(=O)c2cc(OCC(=O)N3CCOCC3)ccc2O1,3.21
14,CCCCn1c(/N=C/c2cc(OC)ccc2O)nc2ccccc21,15
15,Cc1csc(NC(=O)CSc2nnc(NC(=O)COc3ccc(Cl)cc3)s2)n1,27.6
16,Cc1csc(OCC(=O)Nc2ccc(C)c(C)c2)n1,9.82
17,CCN(Cc1ccccc1)Cc1nc(CCc2ccccc2)no1,4.83
18,CN(C)C(=O)Oc1ccc[n+](C)c1.[Br-],-0.301
19,CC(=O)Nc1ccc(CC(=O)N2CCN(Cc3ccccc3)CC2)cc1,11.7
20,NC(=S)N=Nc1c(O)n(CCCl)c2ccccc12,5.57
21,Cc1cc(C)n2cc(CSc3ccccn3)nc2n1,14.4
22,O=C1c2ccccc2C(=O)N1CCc1nc2ccccc2c(=O)n1Cc1ccco1,-21.8
23,O=S(=O)(c1ccccc1)N1CCN(C(=S)Nc2ccccc2)CC1,11.5

row,SMILES,"hERG current change (%, negative = inhibition) at 1uM [%]"
1,COc1cc(NC(=O)c2cccc(C)c2)c(OC)cc1NC(=O)CN1CCOCC1,12
2,CN(C)NC(=S)NC1CCS(=O)(=O)C1 (centres unmarked),16.7
3,COC(=O)c1ccc(NC(=O)CCN2C(=O)C3C4CCC(C4)C3C2=O)cc1 (centres unmarked),9.37
4,Cc1ccc(NC(=O)CCC(=O)NNC(=O)COc2ccccc2)cc1C,17.2
5,Cc1cc(C)nc(-n2nc(C)c(C3(O)C(=O)Nc4ccccc43)c2N)n1 (centres unmarked),14.1
6,CCc1ccccc1OCC(=O)OCC(=O)Nc1cc(C)on1,3.58
7,CN(C(=O)COc1cccc(Br)c1)C1CCS(=O)(=O)C1 (centres unmarked),5.44
8,COc1cccc(OCc2nnc(SCC(=O)OCc3ccccc3)o2)c1,-0.282
9,CC(=O)Nc1ccc(SCC(=O)c2cc(C)n(-c3ccccc3F)c2C)cc1,10.9
10,COc1cc(C(=O)[O-])ccc1Cl.[NH4+],13.6
11,CCNC(=O)CN1C(=O)NC2(CCOc3ccccc32)C1=O (centres unmarked),12.8
12,O=C1N=C(N2CCOCC2)S/C1=C/c1ccc(-c2ccc(F)cc2)o1,9.65
13,N=C1C(c2ccccc2)=C(O)CN1CCO,13.7
14,Cc1oc(C)c(S(=O)(=O)NCc2cccs2)c1C(=O)O,8.21
15,COc1ccc(N(CC(=O)NCCc2ccccc2)C(=O)c2csnn2)cc1,4
16,CS(=O)(=O)N1CCN(c2ccccc2NC(=O)c2cccs2)CC1,-21.6
17,COc1ccc(CCNC(=O)CNC(=O)c2ccc(Br)o2)cc1OC,0.286
18,Cc1ccc(NC(=O)c2ccc(CSc3nnnn3C)cc2)cc1,3.97
19,CCOC(=O)C1=C(C)NC(C)=C(C(=O)OCCNC(=O)c2cccnc2)C1c1cccc([N+](=O)[O-])c1 (centres unmarked),1.96
20,COC(=O)CCCC1=CC2=C(c3ccccc3)C(=O)C(C)(OC(=O)C3CCCC3)C(=O)C2=CN1CC(C)C (centres unmarked),10.8
21,Cc1cc(NCCC(C)C)n2nc(C)c(-c3ccccc3)c2n1,13.3
22,Cc1ccc(C(=O)C2=C(O)C(=O)N(Cc3cccnc3)C2c2ccc(Cl)c(Cl)c2)o1 (centres unmarked),12.7
23,COc1ccc(NC(=O)CC2C(=O)N(C)C(=S)N2Cc2ccncc2)cc1 (centres unmarked),9.17

row,SMILES,"hERG current change (%, negative = inhibition) at 1uM [%]"
1,O=C1NC(=O)/C(=C/C(=O)N2CCOCC2)S1,8.72
2,NC(=O)c1ccc(NC(=O)c2cccc(Oc3ccccc3)c2)cc1,12.5
3,CN(CC1CCOCC1)C(=O)CC1C(=O)NCCN1Cc1cccc(Oc2ccccc2)c1 (centres unmarked),10.8
4,CCOC(=O)Cc1ccc(NC(=O)c2cccc([N+](=O)[O-])c2)cc1,5.35
5,CC1CN(c2nc3c(c(=O)n(C)c(=O)n3C)n2Cc2c(F)cccc2Cl)CC(C)O1 (centres unmarked),-0.473
6,CCOC(=O)C1CCCN(C(=O)COc2ccc(S(=O)(=O)N(CC)c3ccccc3)cc2)C1 (centres unmarked),-1.42
7,O=C(O)CC1CCC(=C(Cl)Cl)C1 (centres unmarked),1.96
8,CC(C)(C)c1cc(C(=O)N2CCc3ccccc3C2)ccn1,12.1
9,Cc1ccccc1C(=O)Nc1ccccc1N1CCN(C(=O)c2ccccc2)CC1,-3.72
10,CC1CCC(NC(=O)C2CCN(S(=O)(=O)c3ccc4nc5c(c(C(=O)O)c4c3)CC(C)CC5)CC2)CC1 (centres unmarked),16.8
11,Cl.NCCc1c[nH]c2ccc(F)cc12,19.6
12,CCOC(=O)c1nnn(CC(=O)Nc2cccc(F)c2)c1C(=O)OCC,9.32
13,O=C(O)C(=O)O.O=[N+]([O-])c1ccc(OCCN2CCCCCC2)cc1,-74.5
14,Cc1n[nH]c(=O)nc1N1CCc2ccccc2C1,20.4
15,COc1ccc(C2NC(C(=O)O)CS2)cc1COCC(F)(F)F (centres unmarked),7.06
16,CC(NC(=O)COc1ccc(-c2ccccc2)cc1)C1CCCO1 (centres unmarked),11
17,CC(=O)N(C)c1ccc(N2CCOCC2)c2c1C(=O)c1ccccc1C2=O,7.39
18,N#Cc1c(-c2ccco2)ccn(Cc2cccc(F)c2)c1=O,13.2
19,CSc1cccc(CN2CCN(CCC(C)C)C(CCO)C2)c1 (centres unmarked),1.82
20,O=C(NC1CCCCC1)C(c1ccco1)N(Cc1ccco1)C(=O)c1ccco1 (centres unmarked),5.25
21,CCOc1ccccc1N1CCN(Cc2cccc(OC)c2O)CC1,-5.21
22,CCOC(=O)c1ccc(NC(=O)CNS(=O)(=O)c2ccccc2)cc1,11.3
23,COc1ccc(CN(C2CCCC2)S(=O)(=O)c2ccc(-n3cnnn3)c(OC)c2)cc1OC,-4.65
